Measurements from the GPR68 mutational scans of Howard et al. (2025).

B1: GPR68, Q15743 (parent)
chain: MGNITADNSSMSCTIDHTIHQTLAPVVYVTVLVVGFPANCLSLYFGYLQIKARNELGVYLCNLTVADLFYICSLPFWLQYVLQHDNWSHGDLSCQVCGILLYENIYISVGFLCCISVDRYLAVAHPFRFHQFRTLKAAVGVSVVIWAKELLTSIYFLMHEEVIEDENQHRVCFEHYPIQAWQRAINYYRFLVGFLFPICLLLASYQGILRAVRRSHGTQKSRKDQIQRLVLSTVVIFLACFLPYHVLLLVRSVWEASCDFAKGVFNAYHFSLLLTSFNCVADPVLYCFVSETTHRDLARLRGACLAFLTCSRTGRAREAYPLGAPEASGKSGAQGEEPELLTKLHPAFQTPNSPGSGGFPTGRLA

Assays:
[1] = variants of: B1; test: cAMP reporter score (Enrich2 score, wild type = 0); higher = more signal; HEK293T, FACS bins
[2] = variants of: B1; test: surface expression score (Enrich2 score, wild type = 0); higher = more signal; HEK293T, FACS bins

| Variant | cAMP reporter score ([1]; pH 5.5) | cAMP reporter score ([1]; pH 6) | cAMP reporter score ([1]; pH 6, modulator: ogerin) | cAMP reporter score ([1]; pH 6.5, modulator: ogerin) | surface expression score [2] |
| --- | --- | --- | --- | --- | --- |
| MGNITADNSSMSCTIDHTIHQTLAPVVYVTVLVVGFPANCLSLYFGYLQIKARNELGVYLCNLTVADLFYICSLPFWLQYVLQHDNWSHGDLSCQVCGILLYENIYISVGFLCCISVDRYLAVAHPFRFHQFRTLKAAVGVSVVIWAKELLTSIYFLMHEEVISDENQHRVCFEHYPIQAWQRAINYYRFLVGFLFPICLLLASYQGILRAVRRSHGTQKSRKDQIQRLVLSTVVIFLACFLPYHVLLLVRSVWEASCDFAKGVFNAYHFSLLLTSFNCVADPVLYCFVSETTHRDLARLRGACLAFLTCSRTGRAREAYPLGAPEASGKSGAQGEEPELLTKLHPAFQTPNSPGSGGFPTGRLA [E164S] | 0.207 | 0.136 | 0.499 | -0.329 | 1.66 |
| MGNITADNSSMSCTIDHTIHQTLAPVVYVTVLVVGFPANCLSLYFGYLQIKARNELGVYLCNLTVADLFYICSLPFWLQYVLQHDNWSHGDLSCQVCGILLYENIYISVGFLCCISVDRYLAVAHPFRFHQFRTLKAAVGVSVVIWAKELLTSIYFLMHEEVITDENQHRVCFEHYPIQAWQRAINYYRFLVGFLFPICLLLASYQGILRAVRRSHGTQKSRKDQIQRLVLSTVVIFLACFLPYHVLLLVRSVWEASCDFAKGVFNAYHFSLLLTSFNCVADPVLYCFVSETTHRDLARLRGACLAFLTCSRTGRAREAYPLGAPEASGKSGAQGEEPELLTKLHPAFQTPNSPGSGGFPTGRLA [E164T] | 0.756 | 0.598 | 0.778 | 0.768 | 0.523 |
| MGNITADNSSMSCTIDHTIHQTLAPVVYVTVLVVGFPANCLSLYFGYLQIKARNELGVYLCNLTVADLFYICSLPFWLQYVLQHDNWSHGDLSCQVCGILLYENIYISVGFLCCISVDRYLAVAHPFRFHQFRTLKAAVGVSVVIWAKELLTSIYFLMHEEVIVDENQHRVCFEHYPIQAWQRAINYYRFLVGFLFPICLLLASYQGILRAVRRSHGTQKSRKDQIQRLVLSTVVIFLACFLPYHVLLLVRSVWEASCDFAKGVFNAYHFSLLLTSFNCVADPVLYCFVSETTHRDLARLRGACLAFLTCSRTGRAREAYPLGAPEASGKSGAQGEEPELLTKLHPAFQTPNSPGSGGFPTGRLA [E164V] | 0.4 | -0.029 | – | 3.15 | – |
| MGNITADNSSMSCTIDHTIHQTLAPVVYVTVLVVGFPANCLSLYFGYLQIKARNELGVYLCNLTVADLFYICSLPFWLQYVLQHDNWSHGDLSCQVCGILLYENIYISVGFLCCISVDRYLAVAHPFRFHQFRTLKAAVGVSVVIWAKELLTSIYFLMHEEVIWDENQHRVCFEHYPIQAWQRAINYYRFLVGFLFPICLLLASYQGILRAVRRSHGTQKSRKDQIQRLVLSTVVIFLACFLPYHVLLLVRSVWEASCDFAKGVFNAYHFSLLLTSFNCVADPVLYCFVSETTHRDLARLRGACLAFLTCSRTGRAREAYPLGAPEASGKSGAQGEEPELLTKLHPAFQTPNSPGSGGFPTGRLA [E164W] | 0.272 | 0.825 | 0.592 | 0.076 | 0.569 |

Scores with a large standard error are left out. Two further conditions of the source, in which the scores hardly spread, are not listed. Read del as a deletion of the residues named and ins as an insertion between two positions. For part of these data: The concentration of ogerin is not given here.
